Results from PubChem BioAssay AID588342 (National Center for Advancing Translational Sciences (NCATS), 2011).
“And” between values parts separate entries of the source, which are not always exact repeats. Equal values may be shown once. In all, about 360,000 compounds went through this assay and about 25,000 (6.9%) were called active. Inconclusive means that the source gave no clear call. Such entries were picked first, then a sample of the others. Calls come from the whole dose curve; as a rule, active = well fitted inhibition curve with a large enough effect; inconclusive = small, poorly fitted or top-dose-only effect; inactive = flat fitted curve, though single readings scatter. Potencies beside an inconclusive call are fits to weak or partial responses and may not hold up.

These molecules were tested against Luciferin 4-monooxygenase (Photinus pyralis) (UniProt P08659) (assay: qHTS profiling assay for firefly luciferase inhibitor/activator using purifed enzyme and Km concentrations of substrates (counterscreen for miR-21 project)). Conditions: purified FLuc, luminescence inhibition; series mostly up to 57.5 µM; activity change, negative = inhibition: at the top concentration.
Method in brief: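 Purified P. pyralis luciferase, 10 nM final, with Km-level 10 uM D-luciferin and 10 uM ATP in 50 mM Tris acetate pH 7.5, 10 mM Mg acetate, 0.01% Tween-20, 0.05% BSA; 6-point qHTS titration about 60 µM downward; luminescence read.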
Note: nearly all actives have a fitted effect of over 55% in size.
Potency is the fitted concentration of half-maximal effect; tags give direction and shape of the fitted curve.
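Throughout, for activity change, negative = inhibition: plate controls were vehicle for no effect and reference inhibitor for full effect.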

UniProt P08659, sequence (P08659 whole entry, looked up): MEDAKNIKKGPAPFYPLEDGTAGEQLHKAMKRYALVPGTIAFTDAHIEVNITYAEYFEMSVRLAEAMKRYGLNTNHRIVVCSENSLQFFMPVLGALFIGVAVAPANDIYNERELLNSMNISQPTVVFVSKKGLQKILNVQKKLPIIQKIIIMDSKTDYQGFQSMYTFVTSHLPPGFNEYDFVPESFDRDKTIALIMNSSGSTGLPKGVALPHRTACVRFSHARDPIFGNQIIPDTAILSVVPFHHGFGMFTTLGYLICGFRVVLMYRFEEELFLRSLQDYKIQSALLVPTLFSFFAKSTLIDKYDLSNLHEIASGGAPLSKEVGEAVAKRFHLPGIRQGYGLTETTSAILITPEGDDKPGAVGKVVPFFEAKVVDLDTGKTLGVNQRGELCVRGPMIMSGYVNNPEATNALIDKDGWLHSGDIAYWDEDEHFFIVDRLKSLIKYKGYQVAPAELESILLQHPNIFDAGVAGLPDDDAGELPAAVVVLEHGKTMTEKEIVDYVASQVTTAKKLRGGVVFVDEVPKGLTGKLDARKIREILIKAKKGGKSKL

SMILES	Potency	activity change, negative = inhibition
C/C(=N\NC(=O)c1ccc(F)cc1)c1cccc(NC(=O)c2ccco2)c1	active: 4.78 µM	
O=C(Nc1cccc(F)c1)Nc1cccc(Cl)c1	active: 23.9 µM	
CC1=Nc2cc(C(=O)NC3CCCC3)ccc2Sc2ccc(C)cc21		inactive: -13.1%
Cc1cc(N)n2nc(C)c(-c3ccccc3)c2n1	inconclusive: 15.1 µM [inhibitor, partial curve]	
CCOc1ccc(NC(=O)N(c2ccccc2)c2ccccc2)cc1	inconclusive: 19 µM [inhibitor, partial curve]	
Cc1cccc(/C=C(\C#N)C(=O)Nc2ccccn2)c1	inconclusive: 30.1 µM [inhibitor, single point]	
COc1ccc(OC)c(Cc2nnc(CCC(=O)N3CCN(C4CCCC4)CC3)o2)c1	inconclusive: 19 µM [inhibitor, partial curve]	
CC1CC(C)CN(CCCNC(=O)CN2C(=O)CSc3ccc(S(=O)(=O)N4CCCCC4)cc32)C1 (stereo not drawn)		inactive: -2.43%
CCC(C)NC(=O)c1ccc2c(SCC(=O)O)c3c(nc2c1)CCCC3 (stereo not drawn)	inconclusive: 19 µM [inhibitor, partial curve]	
COc1ccc2ccccc2c1-c1csc(N)n1	inconclusive: 19 µM [inhibitor, partial curve]	
COc1ccc2nc(SCC(=O)N3CCNC3=O)[nH]c2c1	active: 21.3 µM	
O=C(CCn1c(=O)sc2ccccc21)Nc1nccs1	active: 13.5 µM	
CN(Cc1ccccc1)C(=O)CSc1nc2ccccc2n1Cc1ccccc1F		inactive: -0.451%
Cc1cc(C)cc(NC(=O)c2ccc(CNc3c(N4CCOCC4)c(=O)c3=O)cc2)c1		inactive: -19%
CCc1c(C#N)c(SCc2c(C)noc2C)nc2c1C(=O)CC(C)(C)C2		inactive: 1.16%
Cc1ccc(C2NC(=O)c3ccccc3N2)s1 (stereo not drawn)	inconclusive: 9.53 µM [inhibitor, partial curve]	
CSc1nc2ccc(NS(=O)(=O)c3ccc(Br)s3)cc2s1	inconclusive: 26.9 µM [inhibitor, partial curve, poor fit]	
COc1ccccc1C(=O)Nc1ccc2c(c1)nc(CN1CCCCC1)n2C	inconclusive: 21.3 µM [inhibitor, single point] and inconclusive: 26.9 µM [inhibitor, partial curve]	
O=C(Cn1ccc2cc(S(=O)(=O)N3CCCC3)ccc21)NCCc1ccccc1		inactive: 4.84%
O=C(OCC(=O)N1CCN(C(=O)c2ccco2)CC1)c1cc(-c2cccc(Br)c2)nc2ccccc12	active: 9.53 µM	
COc1ccc(-c2nnc(NC(=O)c3c(OC)cccc3OC)s2)cc1	inconclusive: 26.9 µM [inhibitor, partial curve]	
Cc1ccc(S(=O)(=O)Nc2nc3ccccc3nc2NCc2ccco2)cc1	inconclusive: 8.49 µM [inhibitor, partial curve, poor fit]	
CCNc1nc(NCC)nc(N/N=C/c2cc(OC)c(OC)c(OC)c2)n1	inconclusive: 23.9 µM [inhibitor, partial curve, poor fit]	
O=C(CCn1c(=O)sc2ccccc21)Nc1ccon1	inconclusive: 21.3 µM [inhibitor, single point]	

SMILES	Potency	activity change, negative = inhibition
O=C(Nc1nnc(CC2=CCCCC2)s1)c1cccs1	inconclusive: 15.1 µM [inhibitor, partial curve]	
NS(=O)(=O)c1ccc(NC(=O)c2ccc(CNS(=O)(=O)c3cc(C(F)(F)F)ccc3Cl)cc2)cc1		inactive: 2.69%
COc1cc(/C=C(\C#N)c2nc3ccccc3[nH]2)ccc1OC(=O)c1ccco1	active: 0.953 µM	
Cc1ccc(CNC(=O)Cn2cc(S(=O)(=O)Cc3ccccc3F)c3ccccc32)cc1	inconclusive: 3.79 µM [inhibitor, full curve]	
CC(C)Cc1ccc(CN2CCCC(NC(=O)CCN3CCOCC3)C2)cc1 (stereo not drawn)	inconclusive: 21.3 µM [inhibitor, partial curve, poor fit]	
COc1cccc(OCc2cc(C(=O)N3CCN(C)C(c4ccccc4)C3)no2)c1 (stereo not drawn)	active: 26.9 µM	
Cc1ccc(C(=O)Nc2ccnc(-c3cccnc3)n2)cc1	inconclusive: 19 µM [inhibitor, partial curve]	
O=[N+]([O-])c1cc(Br)c(OCc2nnc(-c3ccccc3)o2)c(Br)c1	inconclusive: 26.9 µM [inhibitor, partial curve, poor fit]	
O=C(N/N=C/c1ccc(Br)cc1)c1ccc(F)cc1	active: 6.01 µM	
O=S(=O)(c1ccc(Nc2ccc(-c3ccc4c(c3)OCCO4)nn2)cc1)N1CCCC1	active: 5.36 µM	
COc1ccc(-c2csc(N3N=C(C)C(C)C3=O)n2)cc1 (stereo not drawn)	active: 8.49 µM	
COc1ccc(N2CCN(C3CCCN(C(=O)CN4CCCC4=O)C3)CC2)cc1 (stereo not drawn)		inactive: 0.417%
COc1ccc(/C=C/C(=O)c2ccc3c(c2)OCO3)c(OC)c1	active: 2.13 µM	
COc1ccc(Cl)cc1NC(=O)c1c(NCc2sccc2C)sc2c1CCCC2	inconclusive: 12 µM [inhibitor, partial curve]	
COc1ccccc1NC(=O)N1CCN(c2cc(-c3ccccc3)nc3ncnn23)CC1		inactive: 2.1%
COc1ccc2c(c1)oc(=O)c1ccccc12	inconclusive: 16.9 µM [inhibitor, partial curve]	
O=C(CN1C(=O)CC(c2ccccc2)Sc2ccccc21)Nc1cccc(Cl)c1 (stereo not drawn)		inactive: -12.3%
C(=N\Nc1nc(-c2ccccc2)cs1)/c1cccs1	active: 5.36 µM	
Cc1ccc(CCNC(=O)C2CCN(c3nnc(-n4cccc4CNc4ccc(C)cc4)s3)CC2)cc1		inactive: -8.47%
COc1ccc(/C=C/C(=O)c2ccc3c4c(cccc24)CC3)cc1	active: 15.1 µM	
COc1ccc(C2=NN(CN3C(=O)C(=O)c4ccccc43)C(c3ccc(OC)cc3)C2)cc1 (stereo not drawn)	inconclusive: 15.1 µM [inhibitor, partial curve]	
CC(=O)C1=C(O)C(=O)N(Cc2ccco2)C1c1ccccc1F (stereo not drawn)	inconclusive: 23.9 µM [inhibitor, partial curve]	
O=C(NC(=S)Nc1ccc(Br)cc1)C1CCC1	active: 19 µM	
O=[N+]([O-])c1ccc2nc(-c3ccccc3)[nH]c2c1	active: 5.36 µM	
